According to PubChem BioAssay AID1460 (National Center for Advancing Translational Sciences (NCATS), 2008):
About 5,800 (2.1%) of roughly 270,000 compounds were called active. This list was built around the results that the source calls inconclusive (neither active nor inactive); the mix of calls is not that of the screen. Calls come from the whole dose curve; as a rule, active = well fitted inhibition curve with a large enough effect; inconclusive = small, poorly fitted or top-dose-only effect; inactive = flat fitted curve, though single readings scatter. A potency beside an inconclusive call is a rough fit, not a confirmed value.

What follows are compounds tested against Microtubule-associated protein tau (Homo sapiens) (UniProt P10636) (assay: qHTS for Inhibitors of Tau Fibril Formation, Thioflavin T Binding). Settings: recombinant tau K18 P301L (four-repeat tau fragment), heparin-induced fibrillization, ThT fluorescence; series mostly up to 57.4 µM; activity, negative = inhibition: at the top concentration.
In short: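 K18 P301L tau (15 uM + 0.24 uM Alexa 594-tagged), heparin 20 uM, NaOAc pH 7, 6 h 37 C; ThT 30 uM, 1 h RT, ex 450/em 510 nm.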
% is set by controls: 0 for no effect and ±100 for the full control effect; potency is the fitted concentration of half-maximal effect; tags give direction and shape of the fitted curve.
Note: nearly all actives have a fitted effect of over 55% in size.

Sequence of UniProt P10636 (P10636 whole entry, looked up, the tested form may be a part): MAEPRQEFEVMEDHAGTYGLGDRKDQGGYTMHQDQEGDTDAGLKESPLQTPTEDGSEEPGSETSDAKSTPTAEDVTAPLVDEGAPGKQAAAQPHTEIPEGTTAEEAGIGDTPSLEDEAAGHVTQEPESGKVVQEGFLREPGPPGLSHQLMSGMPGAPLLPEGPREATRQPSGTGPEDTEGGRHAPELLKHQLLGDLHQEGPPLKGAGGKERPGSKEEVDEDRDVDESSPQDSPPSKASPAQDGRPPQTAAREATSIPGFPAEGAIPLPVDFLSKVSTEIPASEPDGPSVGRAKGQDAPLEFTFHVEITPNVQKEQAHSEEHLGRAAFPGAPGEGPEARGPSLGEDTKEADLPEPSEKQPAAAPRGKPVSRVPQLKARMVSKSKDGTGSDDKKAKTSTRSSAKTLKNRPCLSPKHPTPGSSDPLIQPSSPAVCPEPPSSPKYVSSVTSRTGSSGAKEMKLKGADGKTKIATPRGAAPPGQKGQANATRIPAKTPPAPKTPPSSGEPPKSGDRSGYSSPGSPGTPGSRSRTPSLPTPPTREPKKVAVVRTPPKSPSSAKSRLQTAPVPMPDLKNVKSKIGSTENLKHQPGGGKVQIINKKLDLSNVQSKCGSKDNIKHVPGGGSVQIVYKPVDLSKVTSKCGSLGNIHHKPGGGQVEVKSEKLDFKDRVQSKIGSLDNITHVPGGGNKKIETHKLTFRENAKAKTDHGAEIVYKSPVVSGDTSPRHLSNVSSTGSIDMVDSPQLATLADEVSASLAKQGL

Row | Compound | Potency | activity, negative = inhibition
1 | CCOC(=O)C1=C(C)N[C@@]2(O)c3ccccc3C(=O)[C@@]12O | active: 3.55 µM | –
2 | CCN1CCCC1CNS(=O)(=O)c1ccc(Cl)c(C(F)(F)F)c1 (centres undefined) | – | inactive: 5.37%
3 | O=C1C2C3C=CC(C3)C2C(=O)N1CNc1ccc(O)cc1 (centres undefined) | active: 3.16 µM | –
4 | CCOc1ccc(/C=C/C(O)=C2/C(=O)N(C)C3(C)CC2c2ccccc2O3)cc1OC (centres undefined) | inconclusive: 10 µM [inhibitor, partial curve] | –
5 | Cc1ccccc1-c1ccc(Nc2ccc(C(=O)N3CCOCC3)cc2)nn1 | inconclusive: 28.2 µM [inhibitor, partial curve] | –
6 | CCCOc1ccc(C2=NC(c3ccncc3)=Nc3ccc(C)cc3N2)cc1 | inconclusive: 20 µM [inhibitor, partial curve] | –
7 | CCOC(=O)C1CCN(c2ncnc3c2cnn3-c2ccc(OC)cc2)CC1 | inconclusive: 2.82 µM [inhibitor, partial curve] | –
8 | NS(=O)(=O)c1cccc(NC(=O)Nc2ccc(Cl)cc2)c1 | inconclusive: 8.91 µM [activator, partial curve] | –
9 | O=C(CCCSc1nc2ccccc2s1)Nc1nccs1 | inconclusive: 15.8 µM [inhibitor, partial curve, poor fit] | –
10 | Cc1ccc(-c2nc(C)c(CCNC(=O)C(=O)Nc3cc(C)ccc3C)s2)cc1 | inconclusive: 3.55 µM [inhibitor, full curve] | –
11 | CCCc1cc2c(=O)c(-c3cscn3)c(C(=O)OCC)oc2cc1O | – | inactive: -0.318%
12 | O=C(Nc1ccccc1)C1=C[C@@H](c2ccc(Br)cc2)C[C@@H](OCCCCO)O1 | inconclusive: 35.5 µM [inhibitor, single point] | –
13 | O=C(Nc1ccccc1)c1ccc(CSc2ccccn2)cc1 | inconclusive: 4.47 µM [inhibitor, full curve] | –
14 | O=C(Cn1nc(-c2nn(CC(=O)c3ccccc3)c3[n+]2CCCCC3)[n+]2c1CCCCC2)c1ccccc1 | inconclusive: 39.8 µM [inhibitor, partial curve] | –
15 | O=C(CN1C(=O)/C(=C\c2cccs2)SC1=S)Nc1cccc(C(=O)O)c1 | inconclusive: 20 µM [inhibitor, partial curve] | –
16 | COc1cccc(C(=O)Nc2ccc3nc4n(c(=O)c3c2)CCCCC4)c1 | inconclusive: 10 µM [inhibitor, partial curve] | –
17 | Cc1ccc(S(=O)(=O)NCc2c(-c3ccccc3)noc2C)cc1 | – | inactive: -3.42%
18 | COc1ccc(C(=O)Nc2nc(-c3nnn(-c4ccc(F)cc4F)c3C)ns2)cc1 | – | inactive: 0.4%
19 | COc1ccc(CCN(C)CCCOc2ccc(S(=O)(=O)c3[nH]c4ccccc4c3C(C)C)cc2)cc1OC | inconclusive: 39.8 µM [inhibitor, single point] | –
